# Results taken from the supplement of paper PMC8728848.
# The list shows a part of the results.
# Experiments:
# Test in all cases: glycan array binding signal (z-score within array); higher = stronger binding
# Conditions in all cases: glycan notation: IUPAC condensed, linker removed; mutation: E41G
# [1] = target: GlcNAc(a1-6)Gal(b1-4)GlcNAc
# Method in brief: (§1)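 The binding signal is a Z-score computed within each array. Data were drawn from 3228 arrays in the Consortium for Functional Glycomics database, restricted to those with a known protein sequence. Scores were averaged over arrays of the same protein sequence at different concentrations or buffers, and over linkers, and negative values can be taken as non-binding.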
# [2] = target: GlcNAc(b1-2)Gal(b1-3)GalNAc
# Method in brief: as §1
# [3] = target: GlcNAc(b1-2)Man(a1-3)[GlcNAc(b1-2)Man(a1-6)]Man(b1-4)GlcNAc(b1-4)GlcNAc
# Method in brief: as §1
# [4] = target: GlcNAc(b1-2)Man(a1-3)[GlcNAc(b1-2)Man(a1-6)]Man(b1-4)GlcNAc(b1-4)[Fuc(a1-6)]GlcNAc
# Method in brief: as §1
# [5] = target: GlcNAc(b1-2)Man(a1-3)[GlcNAc(b1-4)][GlcNAc(b1-2)Man(a1-6)]Man(b1-4)GlcNAc(b1-4)GlcNAc
# Method in brief: as §1
# [6] = target: GlcNAc(b1-2)Man(a1-3)[GlcNAc(b1-4)][GlcNAc(b1-2)Man(a1-6)]Man(b1-4)GlcNAc(b1-4)[Fuc(a1-6)]GlcNAc
# Method in brief: as §1
# [7] = target: GlcNAc(b1-2)[GlcNAc(b1-4)]Man(a1-3)[GlcNAc(b1-2)Man(a1-6)]Man(b1-4)GlcNAc(b1-4)GlcNAc
# Method in brief: as §1
# [8] = target: GlcNAc(b1-2)[GlcNAc(b1-4)]Man(a1-3)[GlcNAc(b1-4)][GlcNAc(b1-2)Man(a1-6)]Man(b1-4)GlcNAc(b1-4)GlcNAc
# Method in brief: as §1
# [9] = target: GlcNAc(b1-2)[GlcNAc(b1-4)]Man(a1-3)[GlcNAc(b1-4)][GlcNAc(b1-2)[GlcNAc(b1-6)]Man(a1-6)]Man(b1-4)GlcNAc(b1-4)GlcNAc
# Method in brief: as §1
# [10] = target: GlcNAc(b1-2)[GlcNAc(b1-4)]Man(a1-3)[GlcNAc(b1-4)][GlcNAc(b1-2)[GlcNAc(b1-6)]Man(a1-6)]Man(b1-4)GlcNAc(b1-4)[Fuc(a1-6)]GlcNAc
# Method in brief: as §1
# [11] = target: GlcNAc(b1-2)[GlcNAc(b1-6)]Man(a1-6)[GlcNAc(b1-2)Man(a1-3)]Man(b1-4)GlcNAc(b1-4)GlcNAc
# Method in brief: as §1
# [12] = target: GlcNAc(b1-2)[GlcNAc(b1-6)]Man(a1-6)[GlcNAc(b1-2)Man(a1-3)]Man(b1-4)GlcNAc(b1-4)[Fuc(a1-6)]GlcNAc
# Method in brief: as §1
# [13] = target: GlcNAc(b1-2)[GlcNAc(b1-6)]Man(a1-6)[GlcNAc(b1-4)][GlcNAc(b1-2)Man(a1-3)]Man(b1-4)GlcNAc(b1-4)GlcNAc
# Method in brief: as §1
# [14] = target: GlcNAc(b1-3)Fuc
# Method in brief: as §1
# [15] = target: GlcNAc(b1-3)Gal
# Method in brief: as §1
# [16] = target: GlcNAc(b1-3)Gal(b1-3)GalNAc
# Method in brief: as §1
# [17] = target: GlcNAc(b1-3)Gal(b1-4)Glc
# Method in brief: as §1
# [18] = target: GlcNAc(b1-3)Gal(b1-4)GlcNAc
# Method in brief: as §1
# [19] = target: GlcNAc(b1-3)Gal(b1-4)GlcNAc(b1-2)Man(a1-3)[GlcNAc(b1-3)Gal(b1-4)GlcNAc(b1-2)Man(a1-6)]Man(b1-4)GlcNAc(b1-4)GlcNAc
# Method in brief: as §1
# [20] = target: GlcNAc(b1-3)Gal(b1-4)GlcNAc(b1-2)Man(a1-3)[GlcNAc(b1-3)Gal(b1-4)GlcNAc(b1-2)Man(a1-6)]Man(b1-4)GlcNAc(b1-4)[Fuc(a1-6)]GlcNAc
# Method in brief: as §1
# [21] = target: GlcNAc(b1-3)Gal(b1-4)GlcNAc(b1-2)[GlcNAc(b1-3)Gal(b1-4)GlcNAc(b1-6)]Man(a1-6)[GlcNAc(b1-3)Gal(b1-4)GlcNAc(b1-2)Man(a1-3)]Man(b1-4)GlcNAc(b1-4)GlcNAc
# Method in brief: as §1
# [22] = target: GlcNAc(b1-3)Gal(b1-4)GlcNAc(b1-3)Gal(b1-4)GlcNAc
# Method in brief: as §1
# [23] = target: GlcNAc(b1-3)Gal(b1-4)GlcNAc(b1-3)Gal(b1-4)GlcNAc(b1-2)Man(a1-3)[GlcNAc(b1-3)Gal(b1-4)GlcNAc(b1-3)Gal(b1-4)GlcNAc(b1-2)Man(a1-6)]Man(b1-4)GlcNAc(b1-4)GlcNAc
# Method in brief: as §1
# [24] = target: GlcNAc(b1-3)Gal(b1-4)GlcNAc(b1-3)Gal(b1-4)GlcNAc(b1-2)Man(a1-3)[GlcNAc(b1-3)Gal(b1-4)GlcNAc(b1-3)Gal(b1-4)GlcNAc(b1-2)Man(a1-6)]Man(b1-4)GlcNAc(b1-4)[Fuc(a1-6)]GlcNAc
# Method in brief: as §1
# [25] = target: GlcNAc(b1-3)Gal(b1-4)GlcNAc(b1-3)Gal(b1-4)GlcNAc(b1-2)[GlcNAc(b1-3)Gal(b1-4)GlcNAc(b1-3)Gal(b1-4)GlcNAc(b1-6)]Man(a1-6)[GlcNAc(b1-3)Gal(b1-4)GlcNAc(b1-3)Gal(b1-4)GlcNAc(b1-2)Man(a1-3)]Man(b1-4)GlcNAc(b1-4)[Fuc(a1-6)]GlcNAc
# Method in brief: as §1
# [26] = target: GlcNAc(b1-3)Gal(b1-4)GlcNAc(b1-3)Gal(b1-4)GlcNAc(b1-3)Gal(b1-4)GlcNAc(b1-2)Man(a1-3)[GlcNAc(b1-3)Gal(b1-4)GlcNAc(b1-3)Gal(b1-4)GlcNAc(b1-3)Gal(b1-4)GlcNAc(b1-2)Man(a1-6)]Man(b1-4)GlcNAc(b1-4)GlcNAc
# Method in brief: as §1
# [27] = target: GlcNAc(b1-3)Gal(b1-4)GlcNAc(b1-3)Gal(b1-4)GlcNAc(b1-3)Gal(b1-4)GlcNAc(b1-2)Man(a1-3)[GlcNAc(b1-3)Gal(b1-4)GlcNAc(b1-3)Gal(b1-4)GlcNAc(b1-3)Gal(b1-4)GlcNAc(b1-2)Man(a1-6)]Man(b1-4)GlcNAc(b1-4)[Fuc(a1-6)]GlcNAc
# Method in brief: as §1
# [28] = target: GlcNAc(b1-3)Gal(b1-4)GlcNAc(b1-3)Gal(b1-4)GlcNAc(b1-3)Gal(b1-4)GlcNAc(b1-2)[GlcNAc(b1-3)Gal(b1-4)GlcNAc(b1-3)Gal(b1-4)GlcNAc(b1-3)Gal(b1-4)GlcNAc(b1-6)]Man(a1-6)[GlcNAc(b1-3)Gal(b1-4)GlcNAc(b1-3)Gal(b1-4)GlcNAc(b1-3)Gal(b1-4)GlcNAc(b1-2)Man(a1-3)]Man(b1-4)GlcNAc(b1-4)[Fuc(a1-6)]GlcNAc
# Method in brief: as §1
# [29] = target: GlcNAc(b1-3)Gal(b1-4)GlcNAc(b1-3)Gal(b1-4)GlcNAc(b1-3)Gal(b1-4)GlcNAc(b1-3)Gal(b1-4)GlcNAc(b1-2)Man(a1-3)[GlcNAc(b1-3)Gal(b1-4)GlcNAc(b1-3)Gal(b1-4)GlcNAc(b1-3)Gal(b1-4)GlcNAc(b1-3)Gal(b1-4)GlcNAc(b1-2)Man(a1-6)]Man(b1-4)GlcNAc(b1-4)GlcNAc
# Method in brief: as §1
# [30] = target: GlcNAc(b1-3)Gal(b1-4)GlcNAc(b1-3)Gal(b1-4)GlcNAc(b1-3)Gal(b1-4)GlcNAc(b1-3)Gal(b1-4)GlcNAc(b1-2)Man(a1-3)[GlcNAc(b1-3)Gal(b1-4)GlcNAc(b1-3)Gal(b1-4)GlcNAc(b1-3)Gal(b1-4)GlcNAc(b1-3)Gal(b1-4)GlcNAc(b1-2)Man(a1-6)]Man(b1-4)GlcNAc(b1-4)[Fuc(a1-6)]GlcNAc
# Method in brief: as §1
# [31] = target: GlcNAc(b1-3)Gal(b1-4)GlcNAc(b1-3)Gal(b1-4)GlcNAc(b1-3)Gal(b1-4)GlcNAc(b1-3)Gal(b1-4)GlcNAc(b1-2)[GlcNAc(b1-3)Gal(b1-4)GlcNAc(b1-3)Gal(b1-4)GlcNAc(b1-3)Gal(b1-4)GlcNAc(b1-3)Gal(b1-4)GlcNAc(b1-6)]Man(a1-6)[GlcNAc(b1-3)Gal(b1-4)GlcNAc(b1-3)Gal(b1-4)GlcNAc(b1-3)Gal(b1-4)GlcNAc(b1-3)Gal(b1-4)GlcNAc(b1-2)Man(a1-3)]Man(b1-4)GlcNAc(b1-4)[Fuc(a1-6)]GlcNAc
# Method in brief: as §1
# [32] = target: GlcNAc(b1-3)Gal(b1-4)GlcNAc(b1-3)Gal(b1-4)GlcNAc(b1-3)GalNAc
# Method in brief: as §1
# [33] = target: GlcNAc(b1-3)Gal(b1-4)GlcNAc(b1-3)GalNAc
# Method in brief: as §1
# [34] = target: GlcNAc(b1-3)Gal(b1-4)GlcNAc(b1-3)[GlcNAc(b1-3)Gal(b1-4)GlcNAc(b1-3)]GalNAc
# Method in brief: as §1
# [35] = target: GlcNAc(b1-3)Gal(b1-4)GlcNAc(b1-6)[Gal(b1-3)]GalNAc
# Method in brief: as §1
# [36] = target: GlcNAc(b1-3)Gal(b1-4)GlcNAc(b1-6)[GlcNAc(b1-3)Gal(b1-3)]GalNAc
# Method in brief: as §1
# [37] = target: GlcNAc(b1-3)Gal(b1-4)GlcNAc(b1-6)[GlcNAc(b1-3)]Gal(b1-4)GlcNAc
# Method in brief: as §1
# [38] = target: GlcNAc(b1-3)GalNAc
# Method in brief: as §1
# [39] = target: GlcNAc(b1-3)Man
# Method in brief: as §1
# [40] = target: GlcNAc(b1-3)[GlcNAc(b1-4)][GlcNAc(b1-6)]GlcNAc
# Method in brief: as §1
# [41] = target: GlcNAc(b1-3)[GlcNAc(b1-6)]Gal(b1-4)GlcNAc
# Method in brief: as §1
# [42] = target: GlcNAc(b1-3)[GlcNAc(b1-6)]GalNAc
# Method in brief: as §1
# [43] = target: GlcNAc(b1-4)Gal(b1-4)GlcNAc
# Method in brief: as §1
# [44] = target: GlcNAc(b1-4)GlcNAc
# Method in brief: as §1
# [45] = target: GlcNAc(b1-4)GlcNAc(b1-4)GlcNAc
# Method in brief: as §1
binder,measurement,setting,value
CVN-E41G (protein) MHHHHHHENLYFQSGNFSQACYNSAIQGSVLTSTCIRTNGGYNTSSIDLNSVIGNVDGSLKWQGSNFIETCRNTQLAGSSELAAECKTRAQQFVSTKINLDDHIAAIDGTLKYE,glycan array binding signal (z-score),[1],-0.168
same,glycan array binding signal (z-score),[2],-0.147
same,glycan array binding signal (z-score),[3],-0.168
same,glycan array binding signal (z-score),[4],-0.097
same,glycan array binding signal (z-score),[5],-0.265
same,glycan array binding signal (z-score),[6],-0.136
same,glycan array binding signal (z-score),[7],-0.154
same,glycan array binding signal (z-score),[8],-0.148
same,glycan array binding signal (z-score),[9],-0.166
same,glycan array binding signal (z-score),[10],-0.166
same,glycan array binding signal (z-score),[11],-0.145
same,glycan array binding signal (z-score),[12],-0.158
same,glycan array binding signal (z-score),[13],-0.165
same,glycan array binding signal (z-score),[14],-0.135
same,glycan array binding signal (z-score),[15],-0.178
same,glycan array binding signal (z-score),[16],-0.16
same,glycan array binding signal (z-score),[17],-0.169
same,glycan array binding signal (z-score),[18],-0.17
same,glycan array binding signal (z-score),[19],-0.152
same,glycan array binding signal (z-score),[20],-0.073
same,glycan array binding signal (z-score),[21],-0.026
same,glycan array binding signal (z-score),[22],-0.172
same,glycan array binding signal (z-score),[23],-0.1
same,glycan array binding signal (z-score),[24],-0.138
same,glycan array binding signal (z-score),[25],-0.107
same,glycan array binding signal (z-score),[26],-0.133
same,glycan array binding signal (z-score),[27],-0.114
same,glycan array binding signal (z-score),[28],-0.124
same,glycan array binding signal (z-score),[29],-0.067
same,glycan array binding signal (z-score),[30],0.084
same,glycan array binding signal (z-score),[31],-0.123
same,glycan array binding signal (z-score),[32],-0.128
same,glycan array binding signal (z-score),[33],-0.168
same,glycan array binding signal (z-score),[34],-0.161
same,glycan array binding signal (z-score),[35],-0.128
same,glycan array binding signal (z-score),[36],-0.163
same,glycan array binding signal (z-score),[37],-0.149
same,glycan array binding signal (z-score),[38],-0.152
same,glycan array binding signal (z-score),[39],-0.139
same,glycan array binding signal (z-score),[40],-0.16
same,glycan array binding signal (z-score),[41],-0.095
same,glycan array binding signal (z-score),[42],-0.168
same,glycan array binding signal (z-score),[43],-0.163
same,glycan array binding signal (z-score),[44],-0.13
same,glycan array binding signal (z-score),[45],-0.125
